Conditions in all cases: both partners purified
Assay [1] deals with T1, mouse WDR5 22-334 (mouse, UniProt P61965). Briefly: ITC; MicroCal PEAQ-ITC, 25 °C; 25 mM HEPES pH 7.5, 150 mM NaCl, 5% glycerol, 1 mM β-ME; 750 µM WDR5 (syringe) into 50 µM PER1, PER2 or RbBP5 (cell); 90 µM PER1 or PER2 (syringe) into 8 µM CRY1 1-496 (cell); one-site binding model; mean of triplicates. (In general: ITC needs no label: the signal is the heat of the interaction.)

Assay [2] deals with T2, mouse CRY1 1-496 (PHR) (mouse, UniProt P97784 1-496).
T2 construct: pCoofy27; tag-free after cleavage; also called CRY1-PHR
T2 sequence (looked up): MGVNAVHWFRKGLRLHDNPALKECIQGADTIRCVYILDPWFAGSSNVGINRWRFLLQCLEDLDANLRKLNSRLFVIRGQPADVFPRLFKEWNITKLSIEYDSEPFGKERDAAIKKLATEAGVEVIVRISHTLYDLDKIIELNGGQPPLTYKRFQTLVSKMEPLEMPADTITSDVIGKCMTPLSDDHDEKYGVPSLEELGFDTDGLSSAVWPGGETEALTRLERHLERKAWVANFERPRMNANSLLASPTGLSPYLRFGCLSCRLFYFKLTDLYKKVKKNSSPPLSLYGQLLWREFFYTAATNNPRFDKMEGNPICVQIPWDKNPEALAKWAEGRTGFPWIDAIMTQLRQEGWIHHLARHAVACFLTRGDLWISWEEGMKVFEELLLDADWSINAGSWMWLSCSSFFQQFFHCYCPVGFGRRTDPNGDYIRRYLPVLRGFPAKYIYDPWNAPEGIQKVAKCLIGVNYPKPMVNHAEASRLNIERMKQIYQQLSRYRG
The assay is described as above.

Assay [3] concerns the target T1, mouse WDR5 22-334. Briefly: SEC; preformed equimolar complexes (PER1 + WDR5 overnight, hMLL1 + WDR5 2 h), 60 µM final, without inhibitor or with the WDR5 WIN site inhibitors Inh-4 or Inh-5 (PER1/WDR5) or Inh-4 (MLL1/WDR5), 1 h on ice; S200 10/300; 25 mM HEPES pH 7.5, 150 mM NaCl, 5% glycerol, 2 mM DTT. For orientation: SEC sorts molecules by how far they enter the pores of the column.

B1: mouse PER1 […] D1197A (domain or fragment)
chain: not shown
notes: also called PER1 D1197A; WBM motif mutant; source: E. coli Rosetta (DE3), purified essentially as the wild-type protein
With B1, the Kd in assay [1] was determined as 5.7 µM; in assay [2] it was 0.157 µM.

B2: mouse PER1 […] R1111A (domain or fragment)
chain: not shown
notes: also called PER1 R1111A; WIN motif mutant; source: E. coli Rosetta (DE3), purified essentially as the wild-type protein
In assay [1], B2 showed a Kd of 13.5 µM. In addition, the binding result in assay [2] is “binds”.

B3: mouse PER1 […] R1111A D1197A (domain or fragment)
chain: not shown
notes: also called PER1 R1111A D1197A double mutant; source: E. coli Rosetta (DE3), purified essentially as the wild-type protein
With B3, the results for the Kd in assay [1] and in assay [2] were 16.2 µM and 0.196 µM, respectively.

B4: mouse PER1 […] R1111A R1113A (domain or fragment)
chain: not shown
notes: also called PER1 R1111A R1113A WIN site mutant; source: E. coli Rosetta (DE3), purified essentially as the wild-type protein
B4 came in with a Kd in assay [1] greater than 100 µM.

B5: human MLL1 […] (WIN-SET) (domain or fragment)
chain: not shown
notes: also called MLL1 WIN-SET fragment
As for B5, the binding result in assay [3] is reported as “binds”.

What is called Kd is the concentration at which binding is half-saturated.

The values are drawn from PMC13649712, “Role of PER-WDR5 interactions in the mammalian circadian clock” (Nature Communications, 2026).
